# Source: PubChem BioAssay AID2675 (National Center for Advancing Translational Sciences (NCATS), 2010)
# About 100 (0.036%) of roughly 280,000 compounds were called active. The inconclusive results got no clear call from the source; some entries with a clear call stand among them for comparison. The call rests on the fitted dose curve; in most records, active means well fitted inhibition curve with a large enough effect in the signal ratio, with a control signal flat (not every such curve was filed as active); inconclusive means small, poorly fitted or top-dose-only effect, or effect the other way, or a change in a side signal; inactive means no such curve, though single readings can be large or run the other way; the % refers to the signal ratio. A potency beside an inconclusive call is a rough fit, not a confirmed value. “Side channel” marks fits to a control or component signal instead of the main read-out.
# Target: Muscleblind-like protein 1 (Homo sapiens) (UniProt Q9NR56)
# Assay: qHTS Assay for Inhibitors of MBNL1-poly(CUG) RNA binding
# Conditions: TR-FRET MBNL1-His/biotin-(CUG)12 binding, 665/545 ratio; activity change, negative = inhibition: at 57.5 µM (top of the series)
# Summary of the method: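 TR-FRET readout: Ex 340 nm, 665/545 nm emission ratio, normalized to buffer-only (basal) and MBNL1-(CUG)12 controls. Complex of MBNL1-His with Biotin-(CUG)12, compounds 92 nM–58 uM, incubated 60 min at room temperature.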
# On the % scale 0 is the no-effect control and ±100 the full control effect; potency means the concentration at half of the fitted maximal effect; tags describe the fitted curve by direction and shape or compound fluorescence and quenching.
# UniProt Q9NR56, sequence (Q9NR56 whole entry, looked up): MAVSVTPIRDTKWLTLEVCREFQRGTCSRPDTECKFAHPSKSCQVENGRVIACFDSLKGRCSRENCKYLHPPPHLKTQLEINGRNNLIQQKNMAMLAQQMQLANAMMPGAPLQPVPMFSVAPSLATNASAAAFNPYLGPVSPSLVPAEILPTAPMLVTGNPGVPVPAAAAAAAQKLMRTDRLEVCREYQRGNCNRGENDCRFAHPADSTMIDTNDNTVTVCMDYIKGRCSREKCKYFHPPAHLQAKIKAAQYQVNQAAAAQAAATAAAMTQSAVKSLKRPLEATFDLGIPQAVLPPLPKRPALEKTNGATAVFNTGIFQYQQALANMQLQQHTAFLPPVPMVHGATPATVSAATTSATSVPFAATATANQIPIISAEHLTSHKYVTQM
Compound,Potency,"activity change, negative = inhibition"
COc1cccc(CNC(=O)CCS(=O)(=O)c2cccc3nsnc23)c1,"inconclusive: 14.1 µM [quencher, side channel, partial curve]",–
Cc1sc2ncn3c(C)nnc3c2c1C,"inconclusive: 31.6 µM [quencher, side channel, single point]",–
COc1ccc(C)cc1NS(=O)(=O)c1cccc2nonc12,"inconclusive: 22.4 µM [quencher, side channel, partial curve]",–
CCc1cccc(N=c2c([N+](=O)[O-])nn(-c3ccc(Cl)cc3)n2O)c1,"inconclusive: 14.1 µM [quencher, partial curve]",–
O=C1CC(c2ccc(F)cc2)Cc2nc(N3CCc4ccccc43)ncc21 (stereo unspecified),"inconclusive: 35.5 µM [fluorescent, single point]",–
O=C(NCCN1CCN(C(=O)c2cc3ccccc3oc2=O)CC1)c1cc2ccccc2oc1=O,"inconclusive: 10 µM [quencher, partial curve]",–
CCN(CC)S(=O)(=O)c1ccc(/C=C/C(=O)NC2CCCCC2)cc1,"inconclusive: 15.8 µM [quencher, side channel, partial curve]",–
CC(=O)Nc1ccc(NC(=S)Nc2ccc(F)cc2)cc1,–,inactive: -4.67%
CC1=NC(=O)C(N=Nc2ccccc2C(=O)O)N1c1ccccc1 (stereo unspecified),"inconclusive: 28.2 µM [quencher, side channel, partial curve]",–
O=C(O)C1C2CCC(O2)C1C(=O)Nc1ccc(O)cc1 (stereo unspecified),–,inactive: -15.5%
COc1cc(OC)c(CN2CCC(CO)(CCOc3ccccc3)CC2)c(OC)c1,–,inactive: -1.69%
Cc1cc(C(=O)CSc2nnc(Cc3ccccc3)o2)c(C)n1Cc1ccc2c(c1)OCO2,"inconclusive: 0.794 µM [quencher, side channel, single point]",–
CC1(C)COCN1S(=O)(=O)c1ccc(C(=O)Nc2nnc(-c3ccc(Cl)s3)o2)cc1,–,inactive: -0.193%
Cc1ccc(-c2nnc(Nc3ccc(C(=O)N(C)C)cc3)c3ccccc23)cc1S(=O)(=O)NC(C)(C)CO,"inconclusive: 11.2 µM [quencher, side channel, partial curve]",–
CCc1cc2c(CN3CCN(CCO)CC3)cc(=O)oc2cc1O,–,inactive: 14.5%
c1csc(-c2nn3c(-c4ccncc4)nnc3s2)c1,–,inactive: 4.86%
CC1CCC(C(C)C)C(OC(=O)Cn2c(-c3ccc(F)cc3)[n+](C)c3ccccc32)C1 (stereo unspecified),"inconclusive: 0.251 µM [fluorescent, side channel, partial curve]",–
COc1ccccc1N1CCN(C(=O)c2ccc3nc[nH]c3c2)CC1,"inconclusive: 1.41 µM [fluorescent, side channel, partial curve]",–
CC1Sc2ccc(S(=O)(=O)N3CCC(C(=O)NCCc4ccccc4)CC3)cc2NC1=O (stereo unspecified),–,inactive: 1.67%
CN1CC=C2C(C#N)=C(N)C(C#N)(C#N)[C@H](c3ccoc3)[C@H]2C1,"inconclusive: 25.1 µM [quencher, side channel, partial curve]",–
CC1=C(C#N)C(=O)N(C2CCS(=O)(=O)C2)C(=O)/C1=C\c1ccco1 (stereo unspecified),"inconclusive: 28.2 µM [quencher, side channel, single point]",–

Compound,Potency,"activity change, negative = inhibition"
Cc1ccc(C(=O)N/C(=C\c2cccs2)C(=O)NCc2ccncc2)cc1,"inconclusive: 17.8 µM [quencher, side channel, partial curve]",–
O=C(Nc1cc(F)cc(F)c1)c1sc(Cl)nc1-c1ccccc1,"inconclusive: 39.8 µM [fluorescent, side channel, single point]",–
N#Cc1nc(-c2ccccc2)oc1NCc1ccco1,"inconclusive: 5.62 µM [quencher, side channel, single point]",–
Cc1cc(C)n(-c2nc3ccccc3n3cnnc23)n1,"inconclusive: 35.5 µM [quencher, side channel, single point]",–
COc1cc(OC)cc(-c2nnc(Sc3ccc(C=O)cc3[N+](=O)[O-])o2)c1,"inconclusive: 11.2 µM [quencher, side channel, partial curve]",–
CCCCN(C)C(=O)c1cc2c(s1)-c1ccccc1S(=O)(=O)C2,"inconclusive: 22.4 µM [quencher, side channel, partial curve]",–
CC(C)N=C(NS(=O)(=O)c1ccccc1)C(Cl)(Cl)Cl,"inconclusive: 1.41 µM [fluorescent, side channel, full curve]",–
N=c1c(-c2nc3ccccc3[nH]2)cc(C(=O)c2cccs2)nn1-c1ccccc1,"inconclusive: 39.8 µM [inhibitor, single point]",–
Cc1coc2cc3oc(=O)c(Cc4ccccc4)c(C)c3cc12,"inconclusive: 0.224 µM [fluorescent, side channel, partial curve]",–
COc1ccc(Cn2c(SC)nc3ccccc32)cc1[N+](=O)[O-],"inconclusive: 35.5 µM [quencher, side channel, single point]",–
Cc1ccc(NC(=O)C(NS(=O)(=O)c2cccc3nsnc23)C(C)C)nc1 (stereo unspecified),"inconclusive: 10 µM [quencher, side channel, partial curve]",–
Cc1ccc(C)c(OCC(O)CN2CCC(Cc3ccccc3)CC2)c1 (stereo unspecified),–,inactive: 4.04%
O=C(Nc1ccc(CN2CCCCC2)cc1)c1sc2ccccc2c1Cl,"inconclusive: 22.4 µM [quencher, side channel, single point]",–
NNC(=O)c1oc2nc(-c3ccccc3)cc(-c3ccco3)c2c1N,"inconclusive: 11.2 µM [quencher, side channel, partial curve]",–
Cc1nc(C)c(C(=O)NNS(=O)(=O)c2ccc([N+](=O)[O-])cc2)s1,"inconclusive: 25.1 µM [quencher, side channel, partial curve, poor fit]",–
CCSc1nnc(NC(=O)c2ccccc2C)s1,"inconclusive: 0.1 µM [quencher, side channel, full curve, poor fit]",–
COc1cc(NS(=O)(=O)c2ccc(NC(=S)NC(=O)c3sc4cc(F)ccc4c3Cl)cc2)nc(OC)n1,–,inactive: -12.7%
O=C(COc1ccc(-c2ccccc2)cc1)N1CCN(S(=O)(=O)Cc2ccccc2)CC1,–,inactive: -4.21%
COC(=O)/C(=C1/Oc2cc(C)oc(=O)c2S1)C(F)(F)F,–,inactive: 13.5%
CCNc1nc(NCC)n2c(SCC(=O)Nc3ccccc3[N+](=O)[O-])nnc2n1,"inconclusive: 11.2 µM [quencher, side channel, partial curve]",–
O=C(COc1ccccc1-c1ccccc1)c1ccccc1,"inconclusive: 0.1 µM [fluorescent, side channel, full curve, poor fit]",–

Compound,Potency,"activity change, negative = inhibition"
Cc1ccc2c(Cl)cc(Cl)c(OCC(=O)NC(C)(C)C)c2n1,–,inactive: 3.14%
COc1ccc(C(CNC(=O)CCOc2ccccc2)N(C)C)cc1 (stereo unspecified),–,inactive: -3.19%
O=c1c2c([nH]c3ccccc13)C(=C1CCCC1)CC2,"inconclusive: 12.6 µM [quencher, side channel, partial curve]",–
Cc1cc(C)c(C#N)c(Sc2nnnn2-c2ccccc2)n1,"inconclusive: 0.141 µM [quencher, side channel, full curve, poor fit]",–
Cc1[nH]n(-c2ccccc2)c(=O)c1-c1ccc(Cl)cc1,–,inactive: -3.87%
Clc1ccccc1OCc1nc(-c2ccncc2)no1,–,inactive: 3.13%
CN(CCO)C(=O)c1cccc2c1-c1ccccc1C2=O,"inconclusive: 12.6 µM [quencher, side channel, partial curve]",–
COC(=O)c1cc(C(=O)N2CCN(c3cccc(C)c3C)CC2)cc([N+](=O)[O-])c1,"inconclusive: 12.6 µM [quencher, side channel, partial curve]",–
CCOc1ccc(CNC(=O)C2CCN(c3nnc(C)c4c(C)n(-c5ccc(C)cc5)nc34)CC2)cc1,–,inactive: 15.6%
Nc1cc(N2CCCC2)c(Cl)cc1[N+](=O)[O-],"inconclusive: 28.2 µM [quencher, single point]",–
CCN(CC)C(=O)c1cc2c(=O)oc3ccccc3c2s1,"inconclusive: 1.26 µM [quencher, side channel, full curve]",–
COc1ccc(-c2nc(-c3ccccn3)nc(N3CCN(C)CC3)c2C#N)cc1,"inconclusive: 25.1 µM [quencher, side channel, partial curve]",–
COC(=O)c1ccc(N=Cc2c(-c3ccccc3)[nH][nH]c2=O)cc1,"inconclusive: 25.1 µM [quencher, side channel, single point]",–
Cc1cc(C(=O)NCC(=O)OCC(=O)N(C(C)C)C(C)C)ccc1[N+](=O)[O-],"inconclusive: 17.8 µM [quencher, side channel, partial curve]",–
CC1(C)CC(=O)C(N=Nc2ccc(Cl)cc2)=C(O)C1,"inconclusive: 0.126 µM [quencher, side channel, full curve, poor fit]",–
Nc1c(C(=O)Nc2ccc(Br)cc2)sc2nc(-c3ccco3)ccc12,–,inactive: 35.8%
COc1cc(/C=C2\C(=N)N3N=CSC3=NC2=O)ccc1OS(=O)(=O)c1ccccc1[N+](=O)[O-],"inconclusive: 7.08 µM [quencher, side channel, partial curve]",–
O=C(NCC(O)c1ccc([N+](=O)[O-])cc1)c1cccc(S(=O)(=O)N2CCOCC2)c1 (stereo unspecified),"inconclusive: 28.2 µM [quencher, single point]",–
CCOC(=O)CNC(=O)c1sc(NC(=O)c2ccccc2)nc1C,"inconclusive: 100 µM [inhibitor, single point]",–
